# Source: PubChem BioAssay AID1030 (National Center for Advancing Translational Sciences (NCATS), 2008)
# Several values for one entry are separate records, joined by “and”; a condition that tells them apart may be missing. Identical values can stand only once. About 16,000 (7.3%) of roughly 220,000 compounds were called active. This list was built around the results that the source calls inconclusive (neither active nor inactive); the mix of calls is not that of the screen. Calls follow the shape of the dose curve; as a rule, active = well fitted inhibition curve with a large enough effect (not every such curve was filed as active); inconclusive = small, poorly fitted or top-dose-only effect, or another doubt; inactive = no such curve, though single readings can be large or run the other way. Where the call is inconclusive, the potency comes from a doubtful curve fit.
# Molecular target: Aldehyde dehydrogenase 1A1 (Homo sapiens) (UniProt P00352)
# Chain of UniProt P00352 (P00352 whole entry, looked up): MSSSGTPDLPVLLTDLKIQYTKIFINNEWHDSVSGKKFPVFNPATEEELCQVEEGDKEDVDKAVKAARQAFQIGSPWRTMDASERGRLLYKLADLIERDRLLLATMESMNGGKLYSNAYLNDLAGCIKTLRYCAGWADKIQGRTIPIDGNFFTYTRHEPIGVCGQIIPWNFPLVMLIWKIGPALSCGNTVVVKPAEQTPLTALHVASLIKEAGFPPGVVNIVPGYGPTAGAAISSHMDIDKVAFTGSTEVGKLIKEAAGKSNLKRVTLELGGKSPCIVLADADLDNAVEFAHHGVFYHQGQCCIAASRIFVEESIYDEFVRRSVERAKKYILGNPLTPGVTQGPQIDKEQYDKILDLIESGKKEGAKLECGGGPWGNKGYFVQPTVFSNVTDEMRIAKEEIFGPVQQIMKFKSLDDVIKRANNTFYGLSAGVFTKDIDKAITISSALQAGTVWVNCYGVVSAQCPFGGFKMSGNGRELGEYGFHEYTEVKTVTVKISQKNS
# Test: qHTS Assay for Inhibitors of Aldehyde Dehydrogenase 1 (ALDH1A1);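 as to activity, negative = inhibition: plate controls were no enzyme wells and a reference inhibitor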
# Settings: Purified ALDH1A1, NADH fluorescence, propionaldehyde substrate; series mostly up to 75.3 µM; activity, negative = inhibition: at the top concentration
# Potency is read from the fitted curve at half-maximal effect; tags tell the direction and shape of the fitted curve.
SMILES,"activity, negative = inhibition",Potency
Cc1ccc(C(=O)N/N=C2\SCC(=O)N2c2cc(C)ccc2C)cc1,inactive: 5.33%,–
CCOC(=O)c1sc(NC(=O)COC(=O)C(CCSC)NC(C)=O)nc1C (configuration not stated),–,"inconclusive: 39.8 µM [inhibitor, single point]"
COCC(=O)N(Cc1cc2ccccc2[nH]c1=O)c1ccccc1OC,–,"inconclusive: 39.8 µM [inhibitor, single point]"
Cn1c(=O)oc2cc(S(=O)(=O)Nc3ccccc3)ccc21,inactive: -1.77%,–
O=C(CCN1C(=O)c2cccc3cccc(c23)C1=O)NCc1cccnc1,–,"inconclusive: 25.1 µM [inhibitor, partial curve]"
O=Cc1cc(N=Nc2ccccc2Cl)ccc1O,–,"inconclusive: 17.8 µM [inhibitor, partial curve]"
CCCCN=C1NN=C(c2cc3ccccc3o2)CS1,–,"inconclusive: 35.5 µM [inhibitor, single point]"
Cc1ccc(S(=O)(=O)N2CCOCC2)cc1NC(=O)c1cc(-c2ccccn2)nc2ccccc12,–,"inconclusive: 31.6 µM [inhibitor, single point]"
O=Cc1cccn1-c1ncc(Br)cn1,–,"inconclusive: 39.8 µM [inhibitor, single point]"
COc1ccc2c(c1)C(=O)[C@H](OC(=O)NCc1ccco1)[C@@H](c1ccc(OC)c(Br)c1)O2,–,"inconclusive: 28.2 µM [inhibitor, partial curve]"
CCCSC(=O)N(CC)CC(=O)Nc1c(CC)cccc1CC,–,"inconclusive: 44.7 µM [inhibitor, single point]"
CS(=O)(=O)Nc1ccc(C(=O)Nc2ccccc2Sc2ccccc2)cc1,–,"inconclusive: 39.8 µM [inhibitor, single point]"
C=CCn1cnc2c(nnn2-c2ccc(C)c(Cl)c2)c1=O,–,"inconclusive: 39.8 µM [inhibitor, single point]"
CC(C)CNS(=O)(=O)c1ccc(CCC(=O)Nc2ccc3c(c2)OCO3)cc1,–,"inconclusive: 3.16 µM [inhibitor, full curve]"
COc1cccc(N2CCN(C(=O)CCCCCNc3nc(=S)[nH]c4ccccc34)CC2)c1,inactive: 6.41%,–
CC(C)C1Nc2ccc(S(N)(=O)=O)cc2C2C=CCC21 (configuration not stated),–,active: 20 µM
Cc1ccc(NC2=NCC(=O)N2C2CCCC2)cc1,inactive: 1.22%,–
CS(=O)(=O)N1CCC[C@@]2(CCN(C(=O)Nc3cccc(F)c3)C2)C1,inactive: 19.5%,–
CCOc1ccc(NC(=S)NNC(=S)Nc2cccc(C(F)(F)F)c2)cc1,–,active: 1.26 µM
O=C(CCNC(=O)c1ccco1)Nc1ccccc1N1CCOCC1,–,"inconclusive: 29.9 µM [inhibitor, single point]"
CC(CCc1ccccc1)NCC(O)c1ccc(O)c(C(N)=O)c1 (configuration not stated),–,"inconclusive: 25.1 µM [inhibitor, partial curve] and inconclusive: 39.8 µM [inhibitor, single point]"
COCCn1c(=O)c(CCc2ccccc2)nc2cnc(Oc3ccccc3)nc21,–,"inconclusive: 28.2 µM [inhibitor, single point]"
CN(C)Cc1cc(C(=O)O)cc(CN(C)C)c1O,–,"inconclusive: 4.47 µM [inhibitor, partial curve]"
CCc1cc2c(=O)c(-c3ccc4c(c3)OCCO4)coc2c(CN2CCCCC2C)c1O (configuration not stated),–,"inconclusive: 25.1 µM [inhibitor, partial curve]"

SMILES,"activity, negative = inhibition",Potency
CN1CCN(c2nnc(-c3cccs3)c3ccccc23)CC1,–,"inconclusive: 31.6 µM [inhibitor, single point]"
COc1ccc(/C=N/NC(=S)Nc2cc(S(=O)(=O)N3CCOCC3)ccc2N2CCOCC2)cc1O,–,"inconclusive: 35.5 µM [inhibitor, single point]"
FC(F)(F)c1cnc(-n2cc[nH]c2=S)c(Cl)c1,inactive: 12.6%,–
Nc1nnc(-c2ccncc2)s1,–,"inconclusive: 31.6 µM [inhibitor, partial curve]"
CNC(=S)N1CCN(c2cccc(OC)c2)CC1,inactive: -10.8%,–
CCc1cc2c(Sc3nc4ccccc4s3)ncnc2s1,–,active: 20 µM
COC(=O)CN(C)C(=O)CC1C(=O)NCCN1CC(C)(C)C (configuration not stated),inactive: -1.51%,–
O=C(COc1ccc(S(=O)(=O)NC2CCCCC2)cc1Cl)N1CCN(c2ccccc2)CC1,inactive: -3.46%,–
COc1ccc(C(=O)NCc2ccc(C)cc2)cc1S(=O)(=O)N1CCCc2ccccc21,–,"inconclusive: 44.7 µM [inhibitor, single point]"
Cc1onc(-c2c(Cl)cccc2Cl)c1C(=O)NC(C)(C)CO,inactive: 12.3%,–
CCSc1nnc(N2C(=O)CC(c3ccsc3)C3=C2CC(C)(C)CC3=O)s1 (configuration not stated),–,"inconclusive: 12.6 µM [inhibitor, partial curve]"
CC(=O)NC(CSC(CC(=O)c1ccco1)c1ccc(C)cc1)C(=O)O (configuration not stated),–,"inconclusive: 35.5 µM [inhibitor, single point]"
O=C(NNC(=S)Nc1ccc(Br)cc1)c1ccc(N2CCOCC2)c([N+](=O)[O-])c1,–,active: 0.891 µM
CCOC(=O)c1[nH]cnc1C(=O)Nc1ccccc1OC,inactive: -9.3%,–
O=C1Nc2ccccc2C(O)(C(=O)NC2CC2)N1c1ccc(Cl)c(Cl)c1 (configuration not stated),inactive: 7.32%,–
CC(=O)Nc1ccc(-c2csc(NNC(=O)c3ccccc3)n2)cc1,inactive: -4.34%,–
Cc1ccc(NC(=O)Cc2noc3ccccc23)nc1,inactive: 6%,–
COc1ccccc1NC(=O)c1c(C)oc2c1CCCC2,–,"inconclusive: 39.8 µM [inhibitor, single point]"
CCOC(=O)CSc1ncnc2c1c(-c1ccccc1)cn2-c1ccc(OC)cc1,–,"inconclusive: 31.6 µM [inhibitor, single point]"
CC(C)c1[nH]nc2c1C(C(C)C)C(C#N)=C(N)O2 (configuration not stated),inactive: -13.2%,–
CCOC(=O)N/N=C/c1cn(CCCOc2ccccc2)c2ccccc12,inactive: 9.12%,–
O=C(Nc1cccc(S(=O)(=O)C(F)F)c1)c1ccc(S(=O)(=O)N2CCOCC2)cc1,–,"inconclusive: 28.2 µM [inhibitor, partial curve]"
CN(CCC#N)C(=O)COC(=O)c1nn(-c2ccccc2)c(=O)c2ccccc12,inactive: 7.44%,–
CCC1C2CN(C(C)=O)CC=C2C(C#N)=C(N)C1(C#N)C#N (configuration not stated),–,"inconclusive: 39.8 µM [inhibitor, single point]"

SMILES,"activity, negative = inhibition",Potency
CCOC(=O)c1sc(NC(=O)CCN2CC(C)OC(C)C2)c(C(=O)OCC)c1C (configuration not stated),–,"inconclusive: 28.2 µM [inhibitor, single point]"
Cc1ccc(NC(=O)C2CCN(c3nc(C)cc(C)n3)CC2)cc1,–,"inconclusive: 39.8 µM [inhibitor, single point]"
CCOc1ncccc1C(=O)Nc1nnc(C2CC2)s1,–,"inconclusive: 44.7 µM [inhibitor, single point]"
Oc1ccc(-c2n[nH]c(C(F)(F)F)c2-c2ccccc2)c(O)c1,inactive: 7.71%,–
COc1ccccc1-c1nc(C#N)c(N2CCc3ccccc3C2)o1,–,"inconclusive: 28.2 µM [inhibitor, partial curve]"
CC(Nc1nc(N2CCNCC2)nc2ccccc12)c1ccccc1 (configuration not stated),–,"inconclusive: 28.2 µM [inhibitor, partial curve]"
COc1ccc(C(C)=O)cc1COC(=O)c1cc(C)nc2ccccc12,–,active: 8.91 µM
COc1ccc(OC)c(/C=C/C(=O)OCC(=O)Nc2cccc(Oc3ccccc3)c2)c1,–,"inconclusive: 23.8 µM [inhibitor, partial curve]"
Cc1ccc(N(CC(O)Cn2c3ccccc3c3ccccc32)S(C)(=O)=O)cc1 (configuration not stated),–,"inconclusive: 44.7 µM [inhibitor, single point]"
CCN(CC)c1ccc(C2C3CCCCC3(O)CCN2CC(=O)Nc2ccccc2)cc1 (configuration not stated),–,"inconclusive: 17.8 µM [inhibitor, partial curve]"
COc1ccc(OCC(=O)Nn2c(-c3ccc(C)cc3)nc3ccccc3c2=O)cc1,–,"inconclusive: 2.82 µM [inhibitor, full curve]"
CS(=O)(=O)N1CCC2(CC1)CN(c1ncccn1)C2,–,"inconclusive: 28.2 µM [inhibitor, single point]"
CC(C)OC(=O)CSc1nnc(-c2cnccn2)n1-c1ccc(Cl)cc1,–,active: 10 µM
COc1cccc(-c2nc(-c3ccccn3)no2)c1OC,–,"inconclusive: 39.8 µM [inhibitor, single point]"
O=C(C1CCCCC1)N1CCN=C1SCc1cccc([N+](=O)[O-])c1,–,"inconclusive: 39.8 µM [inhibitor, single point]"
CCOC(=O)c1sc2nc3c(cc2c1N)COC(C)(CC)C3 (configuration not stated),–,"inconclusive: 17.8 µM [inhibitor, partial curve]"
CC(=O)NNc1ncnc2c1cnn2-c1ccc(C)cc1,–,"inconclusive: 44.7 µM [inhibitor, single point]"
O=C(Nc1ccc2nc(-c3ccco3)c(-c3ccco3)nc2c1)NC1CC1,–,"inconclusive: 14.1 µM [inhibitor, partial curve]"
CC(C(=O)NC1CCCC1)N(c1ccc(Oc2ccccc2)cc1)S(C)(=O)=O (configuration not stated),inactive: 6.52%,–
CC(=O)Nc1cccc(-c2csc(Nc3ccc(C)cn3)n2)c1,inactive: 10.3%,–
Cc1ccnc(NC2c3ccccc3C(=O)N2Cc2ccccc2Cl)c1 (configuration not stated),–,"inconclusive: 2.51 µM [inhibitor, full curve]"
COc1ccc(CNC(=O)c2c([S-])n(-c3ccc(C)cc3)c3cccc[n+]23)cc1,–,"inconclusive: 17.8 µM [inhibitor, partial curve]"
CCS(=O)(=O)c1ccc(N=Nc2ccc(O)c3ncccc23)c(OC)c1,inactive: 0.561%,–
CC(/C=C1\SC(=S)N(CCCC(=O)Nc2ccc(C(=O)O)cc2)C1=O)=C\c1ccccc1,–,"inconclusive: 20 µM [inhibitor, partial curve]"
